Test results published in a collection of fitness landscapes (doi:10.1016/j.celrep.2020.107928).
In all, about 81,000 sequences were measured (“one-hybrid fitness for binding NBS DNA”: median about -0.1, highest 2% from about 0.36 on). This is one part of the list.

B1: Caulobacter ParB omega fusion; a variant is named by its letters at X, in order, B8GW30 (parent)
chain: MESVVVGEPGMSEGRRGLGRGLSALLGEVDAAPAQAPGEQLGGSREAPIEILQRNPDQPRRTFREEDLEDLSNSIREKGVLQPILVRPSPDTAGEYQIVAGERAWRAAQRAGLKTVPIMVRELDDLAVLEIGIIENVQRADLNVLEEALSYKVLMEKFERTQENIAQTIGKSXSHVANXMRLLXLPDEVQSYLVSGELTAXHARAIAAAADPVALAKQIIEGGLSVRETEALARKAPNLSAGKSKGGRPPRVKDTDTQALESDLSSVLGLDVSIDHRGSTGTLTITYATLEQLDDLCNRLTRGI

Variants of: B1
Assay: one-hybrid fitness for binding NBS DNA (the Noc-binding site; scaled: cognate 1, non-cognate 0); higher = stronger binding
Conditions: with NBS DNA site
Procedure, shortened: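 Fitness here means the log change in variant-to-wild-type read ratio between plasmids sequenced before and after selection. That scale was set so cognate equals 1 and non-cognate equals 0. The selection was a bacterial one-hybrid screen of Caulobacter ParB libraries, four specificity codons randomised, in E. coli USO carrying a HIS3 reporter with the site 19 bp from the promoter, grown 48 hours at 37°C on M9-minus-histidine with 0.1 mM IPTG and 5 mM 3-AT.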

one-hybrid fitness for binding NBS DNA, 0.608:
QCKA

one-hybrid fitness for binding NBS DNA, 0.262:
EFER

one-hybrid fitness for binding NBS DNA, 0.289:
QRFC

one-hybrid fitness for binding NBS DNA, 0.438:
RRKK

one-hybrid fitness for binding NBS DNA, 0.413:
QLST

one-hybrid fitness for binding NBS DNA, ≤ 0.2:
RVDH
QSDC
WIIS
WYWG
RLDE
YMTD
PYIR
LRER
HPNV
RCLH
WNMG
SDNY
HKFW
TLAW
SATC
HARN
DEAG
KAGI
AFLD
QVHK
SANR
LHPC
YTRA
TLCV
SQKT
ATAS
MLYR
PVRN
HASG
GRHD
YSEC
LKHE
LLSA
AGKQ
PPFC
QLPW
HLWG
MAAL
HCMV
TGIN
VQQL
MSQC
IPYV
VCHQ
SKQR
RMWG
DHCV
LGLG
QLMW
VCAG
QWKQ
QPGL
GQQA
PMCR
RSDQ
LKKT
SMHG
SWRQ
NPCT
NHIP
YWAG
YMER
TTQM
RNAP
QVSD
TCCD
TRVL
DQVG
CSLG
WRQR
TASA
LVTR
GPVG
YSDF
SDWD
DFMT
LIAF
WTLI
LRGI
YCHN
LMQW
WQKT
EAVW
HEHT
PWVR
DVFG
TNLE
LENL
CLYC
LEML
FCYR
GPDC
GKMR
QGYS
IDLD
GLPR
GLVD
YPKN
SYAC
DRSR
NWMS
LHCQ
LGPV
VILT
NRVR
AMVC
SMPF
RSPL
GSFR
TKES
HAAV
NVVC
HSNR
SFGA
IRGY
SDWS
RPHP
DYII
TNYA
VDPR
RHWE
RFQV
LDGR
NNDF
TLSW
LSQG
NANS
GRIS
LTHE
TVLI
APSM
PYAH
LGDR
LRVF
NCNT
PAIF
FHEV
VMYG
APAP
PPSM
GLFL
MFYR
PLAH
AVQG

one-hybrid fitness for binding NBS DNA, 0.572:
KRAT

one-hybrid fitness for binding NBS DNA, 0.797:
QRAT

one-hybrid fitness for binding NBS DNA, 0.373:
RYGT

one-hybrid fitness for binding NBS DNA, 0.261:
ETRR
